According to the RNAGym collection of RNA variant scans (doi:10.1073/pnas.2313332121):
Variants at the floor of the assay are shown more often than the library holds them.

B1: TPR 5TU (parent)
chain: GGAUCUUCUCGAUCUAACAAAAAAGACAAAUCUGCCACAAAGCUUGAGAGCAUCUUCGGAUGCAGAGGCGGCAGCCUUCGGUGGCGCGAUAGCGCCAACGUUCUCAACUAUGACACGCAAAACGCGUGCUCCGUUGAAUGGAGUUUAUCAUG

Variants of: B1
Test: polymerase ribozyme fitness, log enrichment relative to wild type (log ratio); higher = more active; in vitro selection for triplet polymerase activity
In short: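 Frozen incubation at −7 °C formed the core of a single, triplicate in vitro selection round applied to PCR-built, transcribed mutant libraries of each subunit of a heterodimeric triplet polymerase ribozyme. Extended constructs were gel-excised, captured with streptavidin beads and amplified by RT-PCR, and input and output libraries were Illumina-sequenced with a filter of ≥10 input reads and ≥1 read per output. Fitness is the logarithm of genotype enrichment relative to wild-type enrichment, with inverse-variance-weighted replicate averaging, and the logarithm is base 2.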

Row | Variant | polymerase ribozyme fitness (log ratio)
1 | C105A U135C | -2.39
2 | C105G | -0.829
3 | C105G A107G C131G | ≤ -4.2
4 | C105G A107U U148C | ≤ -4.2
5 | C105G A120U | -0.931
6 | C105U | 0.527
7 | C105U A106C | 0.388
8 | C105U A107G A119G U144A | ≤ -4.2
9 | C105U C131A C149G | ≤ -4.2
10 | C105U C132A U148G | ≤ -4.2
11 | C105U G140A | -2.92
12 | C105U U109C A138G | ≤ -4.2
13 | C105U U135A | 0.0587
14 | A106C A113C G140C U151C | ≤ -4.2
15 | A106C C116G | -0.324
16 | A106C G141C A150U | ≤ -4.2
17 | A106G C116U U148C | -1.25
18 | A106G C118U | 0.261
19 | A106G G117A | 0.816
20 | A106G U109C G117U A120C U139C | ≤ -4.2
21 | A106U C108A | ≤ -4.2
22 | A107C A110G A121G | ≤ -4.2
23 | A107C C118U | ≤ -4.2
24 | A107G A121U | -4.18

Row | Variant | polymerase ribozyme fitness (log ratio)
25 | A107G C131A | -4.19
26 | A107G G141A | -2.72
27 | A107G G141U | -3.07
28 | A107G G143U | -3.81
29 | A107U A115G | -4.16
30 | A107U A120G C132A A147C | ≤ -4.2
31 | A107U C118G A147U C149G U151G | ≤ -4.2
32 | A107U U109G | ≤ -4.2
33 | A107U U135C | -4.04
34 | C108A A121U | ≤ -4.2
35 | C108A G124U G140C | ≤ -4.2
36 | C108G G136A A147C | ≤ -4.2
37 | C108G U145C | ≤ -4.2
38 | C108G U151A | ≤ -4.2
39 | C108U G140U | ≤ -4.2
40 | U109A U151A | ≤ -4.2
41 | U109C C114U | -3.87
42 | U109G C116A | -2.26
43 | U109G C116G | -0.501
44 | U109G C118A C125G | -3.62
45 | U109G C118G U144A | -3.88
46 | A110C G136U | ≤ -4.2
47 | A110G G136A | -2.94
48 | A110G G140U | ≤ -4.2

Row | Variant | polymerase ribozyme fitness (log ratio)
49 | A110G U134G | -4.07
50 | U111C G117U | -4.09
51 | U111G G124A U145G | ≤ -4.2
52 | G112A A119U | ≤ -4.2
53 | G112A A122G A137G | ≤ -4.2
54 | G112A G133A | ≤ -4.2
55 | G112U G141A U148G | ≤ -4.2
56 | A113C C118A | ≤ -4.2
57 | A113G A138U | -3.79
58 | A113G A147C | -2.73
59 | A113G U134A | ≤ -4.2
60 | A113G U148A | -4.05
61 | A113U A120G | -1.73
62 | A113U U146C | -1.49
63 | C114A C149G | ≤ -4.2
64 | C114A G140A U148G | ≤ -4.2
65 | C114G C125A G140U G143C | ≤ -4.2
66 | C114G G124C | -4.13
67 | C114U A147C | -2.83
68 | C114U G124C | -4.11
69 | C114U G140C A150C | ≤ -4.2
70 | C114U U151C | ≤ -4.2
71 | C114U U151G | -4.08
72 | A115C G133U | -3.74

Row | Variant | polymerase ribozyme fitness (log ratio)
73 | A115G G124C C132G A137U | ≤ -4.2
74 | A115U A119G A138G | ≤ -4.2
75 | A115U C118A G143U U145G | ≤ -4.2
76 | A115U U134G U135G | ≤ -4.2
77 | C116A | 1.34
78 | C116A A142C | -3.92
79 | C116A G140U | -4.02
80 | C116A U148C | -3.09
81 | C116G | 0.655
82 | C116G A119U | 0.403
83 | C116G C118A G140A A142C | ≤ -4.2
84 | C116G G124C U148C | ≤ -4.2
85 | C116G G140C | -3.81
86 | C116U | 0.103
87 | C116U A122U | -0.326
88 | C116U A142U | -0.344
89 | C116U C125G | 1.23
90 | C116U G141U | 1.29
91 | C116U U146A | -0.753
92 | C116U U148A | -3.85
93 | G117A | 0.231
94 | G117A A142U | -4.13
95 | G117C | 0.422
96 | G117U | -0.0156

Row | Variant | polymerase ribozyme fitness (log ratio)
97 | C118A | -0.751
98 | C118A A119U | -0.617
99 | C118G | -1.01
100 | C118G A119U G141U | -0.349
101 | C118G A142G | -1.54
102 | C118G U144A | -0.0459
103 | C118U A120G G143C | -2.13
104 | C118U A142G U148C | -2.86
105 | C118U U145A | -0.179
106 | A119C | -0.385
107 | A119G | -0.045
108 | A119U | -0.546
109 | A119U G126A | 0.174
110 | A119U G126A U135C G141C | -3.75
111 | A119U G133C A137G G140U U144G | ≤ -4.2
112 | A119U U139C | -3.94
113 | A120C G141C | -0.144
114 | A120C U139A U148A | ≤ -4.2
115 | A120G A137C | -4.08
116 | A120G G128U | -2.36
117 | A120G G141A | 1.23
118 | A120G U135G U146G | ≤ -4.2
119 | A120U A121U U144G C149G | -3.46
120 | A120U A137C A138U | -4.19

Row | Variant | polymerase ribozyme fitness (log ratio)
121 | A121C A137U A147G | ≤ -4.2
122 | A121C C123A U127C | -1.91
123 | A121C U151G | ≤ -4.2
124 | A121G A122C A137C | -4.06
125 | A121G U135A | -0.777
126 | A121G U144C | -0.191
127 | A121U C125U | -0.154
128 | A121U G143C | -1.7
129 | A122C G140U C149G | ≤ -4.2
130 | A122G A138G C149U | -4
131 | A122G U139C | -4.09
132 | A122U U146C | -0.714
133 | C123U A142U | -1.13
134 | G124A | -0.246
135 | G124A A150G | -0.501
136 | G124A G136A | -0.107
137 | G124A U148C | -0.766
138 | G124C | -0.922
139 | G124C G126U | ≤ -4.2
140 | G124C G136A | -2.84
141 | G124C G141C | -1.16
142 | G124C U135A | -1.84
143 | G124U G136A | 0.382
144 | G124U U130A A142G | ≤ -4.2

Row | Variant | polymerase ribozyme fitness (log ratio)
145 | G124U U135C | -2.36
146 | C125A U146C | -0.394
147 | C125A U146G | -0.126
148 | C125A U148C | -3.48
149 | C125G U127A | -3.68
150 | C125U A150U | -0.413
151 | C125U U148G | ≤ -4.2
152 | G126A A138C | -3.73
153 | G126A A142C | -3.28
154 | G126A C132U | -0.105
155 | G126A G140A | -3.54
156 | G126U C149U | -1.96
157 | U127A G128U | -3.18
158 | U127A G133U A137G | ≤ -4.2
159 | U127A G133U G143C | ≤ -4.2
160 | U127A U134C G141C | -3.82
161 | U127C U148C | ≤ -4.2
162 | U127G A138G A142C | -3.48
163 | U127G A147U | -3.92
164 | U127G G141A | -3.27
165 | U127G U134A | -4.18
166 | U127G U134C | -3.03
167 | U127G U144G | -1.7
